Laboratory results published in patent US9234216B2, “Variant CBH I polypeptides” (BP Corporation North America Inc., priority 2011, dated 2016).

Assay: Saccharification of pretreated bagasse by CBHI variants in a cocktail with CBHII and EG
Type: biochemical
Conditions: Table 2; for % improvement over WT @ 48 hr: 5% w/v pretreated bagasse, 35° C., pH5.2, CBHI 4 mg/g cellulose, (% conversion of variant − % conversion of wt)/% conversion of wt; for Dose Reduction: method not described
Procedure: CBHI variants shown in Tables 1 and 5 were assayed under the following conditions: • 5% w/v pretreated bagasse (62.07% cellulose) • 35° C., 300 rpm shaking with 2 BBs per r×n • pH5.2 • 1 mM Sodium Azide • 5 ml total volume • Enzyme Dosing Overview:
• Time point: T=0, 48 hours • Time point (for Point Mutant Recombinants): T=0, 72 hours • % improvement over wt=(% conversion of variant−% conversion of wt)/ • % conversion of wt Results of these assays are shown in Tables 2 and 6. • CBHI variants shown in Table 3 were assayed under the following conditions: […]

Molecule | % improvement over WT @ 48 hr [%] | Dose Reduction [X]
SEQ ID NO: 37, 38: BD29555 CBH I variant: K345D (protein) MSALNSFNMYKSALILGSLLATAGAQQIGTYTAETHPSLSWSTCKSGGSCTTNSGAITLDANWRWVHGVNTSTNCYTGNTWNTAICDTDASCAQDCALDGADYSGTYGITTSGNSLRLNFVTGSNVGSRTYLMADNTHYQIFDLLNQEFTFTVDVSHLPCGLNGALYFVTMDADGGVSKYPNNKAGAQYGVGYCDSQCPRDLKFIAGQANVEGWTPSSNNANTGLGNHGACCAELDIWEANSISEALTPHPCDTPGLSVCTTDACGGTYSSDRYAGTCDPDGCDFNPYRLGVTDFYGSGKTVDTTKPITVVTQFVTDDGTSTGTLSEIRRYYVQNGVVIPQPSSDISGVSGNVINSDFCDAEISTFGETASFSKHGGLAKMGAGMEAGMVLVMSLWDDYSVNMLWLDSTYPTNATGTPGAARGSCPTTSGDPKTVESQSGSSYVTFSDIRVGPFNSTFSGGSSTGGSSTTTASGTTTTKASSTSTSSTSTGTGVAAHWGQCGGQGWTGPTTCASGTTCTVVNPYYSQCL | 6.9 | 0.75
SEQ ID NO: 39, 40: BD29555 CBH I variant: K45R, T293A, S350C (protein) MSALNSFNMYKSALILGSLLATAGAQQIGTYTAETHPSLSWSTCRSGGSCTTNSGAITLDANWRWVHGVNTSTNCYTGNTWNTAICDTDASCAQDCALDGADYSGTYGITTSGNSLRLNFVTGSNVGSRTYLMADNTHYQIFDLLNQEFTFTVDVSHLPCGLNGALYFVTMDADGGVSKYPNNKAGAQYGVGYCDSQCPRDLKFIAGQANVEGWTPSSNNANTGLGNHGACCAELDIWEANSISEALTPHPCDTPGLSVCTTDACGGTYSSDRYAGTCDPDGCDFNPYRLGVADFYGSGKTVDTTKPITVVTQFVTDDGTSTGTLSEIRRYYVQNGVVIPQPSSKISGVCGNVINSDFCDAEISTFGETASFSKHGGLAKMGAGMEAGMVLVMSLWDDYSVNMLWLDSTYPTNATGTPGAARGSCPTTSGDPKTVESQSGSSYVTFSDIRVGPFNSTFSGGSSTGGSSTTTASGTTTTKASSTSTSSTSTGTGVAAHWGQCGGQGWTGPTTCASGTTCTVVNPYYSQCL | 4.0 | 1
SEQ ID NO: 41, 42: BD29555 CBH I variant: G351D (protein) MSALNSFNMYKSALILGSLLATAGAQQIGTYTAETHPSLSWSTCKSGGSCTTNSGAITLDANWRWVHGVNTSTNCYTGNTWNTAICDTDASCAQDCALDGADYSGTYGITTSGNSLRLNFVTGSNVGSRTYLMADNTHYQIFDLLNQEFTFTVDVSHLPCGLNGALYFVTMDADGGVSKYPNNKAGAQYGVGYCDSQCPRDLKFIAGQANVEGWTPSSNNANTGLGNHGACCAELDIWEANSISEALTPHPCDTPGLSVCTTDACGGTYSSDRYAGTCDPDGCDFNPYRLGVTDFYGSGKTVDTTKPITVVTQFVTDDGTSTGTLSEIRRYYVQNGVVIPQPSSKISGVSDNVINSDFCDAEISTFGETASFSKHGGLAKMGAGMEAGMVLVMSLWDDYSVNMLWLDSTYPTNATGTPGAARGSCPTTSGDPKTVESQSGSSYVTFSDIRVGPFNSTFSGGSSTGGSSTTTASGTTTTKASSTSTSSTSTGTGVAAHWGQCGGQGWTGPTTCASGTTCTVVNPYYSQCL | 3.8 | 1
SEQ ID NO: 43, 44: BD29555 CBH I variant: N352V (protein) MSALNSFNMYKSALILGSLLATAGAQQIGTYTAETHPSLSWSTCKSGGSCTTNSGAITLDANWRWVHGVNTSTNCYTGNTWNTAICDTDASCAQDCALDGADYSGTYGITTSGNSLRLNFVTGSNVGSRTYLMADNTHYQIFDLLNQEFTFTVDVSHLPCGLNGALYFVTMDADGGVSKYPNNKAGAQYGVGYCDSQCPRDLKFIAGQANVEGWTPSSNNANTGLGNHGACCAELDIWEANSISEALTPHPCDTPGLSVCTTDACGGTYSSDRYAGTCDPDGCDFNPYRLGVTDFYGSGKTVDTTKPITVVTQFVTDDGTSTGTLSEIRRYYVQNGVVIPQPSSKISGVSGVVINSDFCDAEISTFGETASFSKHGGLAKMGAGMEAGMVLVMSLWDDYSVNMLWLDSTYPTNATGTPGAARGSCPTTSGDPKTVESQSGSSYVTFSDIRVGPFNSTFSGGSSTGGSSTTTASGTTTTKASSTSTSSTSTGTGVAAHWGQCGGQGWTGPTTCASGTTCTVVNPYYSQCL | 8.7 | 0.75
SEQ ID NO: 45, 46: BD29555 CBH I variant: F358L (protein) MSALNSFNMYKSALILGSLLATAGAQQIGTYTAETHPSLSWSTCKSGGSCTTNSGAITLDANWRWVHGVNTSTNCYTGNTWNTAICDTDASCAQDCALDGADYSGTYGITTSGNSLRLNFVTGSNVGSRTYLMADNTHYQIFDLLNQEFTFTVDVSHLPCGLNGALYFVTMDADGGVSKYPNNKAGAQYGVGYCDSQCPRDLKFIAGQANVEGWTPSSNNANTGLGNHGACCAELDIWEANSISEALTPHPCDTPGLSVCTTDACGGTYSSDRYAGTCDPDGCDFNPYRLGVTDFYGSGKTVDTTKPITVVTQFVTDDGTSTGTLSEIRRYYVQNGVVIPQPSSKISGVSGNVINSDLCDAEISTFGETASFSKHGGLAKMGAGMEAGMVLVMSLWDDYSVNMLWLDSTYPTNATGTPGAARGSCPTTSGDPKTVESQSGSSYVTFSDIRVGPFNSTFSGGSSTGGSSTTTASGTTTTKASSTSTSSTSTGTGVAAHWGQCGGQGWTGPTTCASGTTCTVVNPYYSQCL | 3.9 | 0.75
SEQ ID NO: 47, 48: BD29555 CBH I variant: A370I (protein) MSALNSFNMYKSALILGSLLATAGAQQIGTYTAETHPSLSWSTCKSGGSCTTNSGAITLDANWRWVHGVNTSTNCYTGNTWNTAICDTDASCAQDCALDGADYSGTYGITTSGNSLRLNFVTGSNVGSRTYLMADNTHYQIFDLLNQEFTFTVDVSHLPCGLNGALYFVTMDADGGVSKYPNNKAGAQYGVGYCDSQCPRDLKFIAGQANVEGWTPSSNNANTGLGNHGACCAELDIWEANSISEALTPHPCDTPGLSVCTTDACGGTYSSDRYAGTCDPDGCDFNPYRLGVTDFYGSGKTVDTTKPITVVTQFVTDDGTSTGTLSEIRRYYVQNGVVIPQPSSKISGVSGNVINSDFCDAEISTFGETISFSKHGGLAKMGAGMEAGMVLVMSLWDDYSVNMLWLDSTYPTNATGTPGAARGSCPTTSGDPKTVESQSGSSYVTFSDIRVGPFNSTFSGGSSTGGSSTTTASGTTTTKASSTSTSSTSTGTGVAAHWGQCGGQGWTGPTTCASGTTCTVVNPYYSQCL | 4.8 | 1
SEQ ID NO: 49, 50: BD29555 CBH I variant: G376R (protein) MSALNSFNMYKSALILGSLLATAGAQQIGTYTAETHPSLSWSTCKSGGSCTTNSGAITLDANWRWVHGVNTSTNCYTGNTWNTAICDTDASCAQDCALDGADYSGTYGITTSGNSLRLNFVTGSNVGSRTYLMADNTHYQIFDLLNQEFTFTVDVSHLPCGLNGALYFVTMDADGGVSKYPNNKAGAQYGVGYCDSQCPRDLKFIAGQANVEGWTPSSNNANTGLGNHGACCAELDIWEANSISEALTPHPCDTPGLSVCTTDACGGTYSSDRYAGTCDPDGCDFNPYRLGVTDFYGSGKTVDTTKPITVVTQFVTDDGTSTGTLSEIRRYYVQNGVVIPQPSSKISGVSGNVINSDFCDAEISTFGETASFSKHRGLAKMGAGMEAGMVLVMSLWDDYSVNMLWLDSTYPTNATGTPGAARGSCPTTSGDPKTVESQSGSSYVTFSDIRVGPFNSTFSGGSSTGGSSTTTASGTTTTKASSTSTSSTSTGTGVAAHWGQCGGQGWTGPTTCASGTTCTVVNPYYSQCL | 1.7 | 1
SEQ ID NO: 51, 52: BD29555 CBH I variant: E386S (protein) MSALNSFNMYKSALILGSLLATAGAQQIGTYTAETHPSLSWSTCKSGGSCTTNSGAITLDANWRWVHGVNTSTNCYTGNTWNTAICDTDASCAQDCALDGADYSGTYGITTSGNSLRLNFVTGSNVGSRTYLMADNTHYQIFDLLNQEFTFTVDVSHLPCGLNGALYFVTMDADGGVSKYPNNKAGAQYGVGYCDSQCPRDLKFIAGQANVEGWTPSSNNANTGLGNHGACCAELDIWEANSISEALTPHPCDTPGLSVCTTDACGGTYSSDRYAGTCDPDGCDFNPYRLGVTDFYGSGKTVDTTKPITVVTQFVTDDGTSTGTLSEIRRYYVQNGVVIPQPSSKISGVSGNVINSDFCDAEISTFGETASFSKHGGLAKMGAGMSAGMVLVMSLWDDYSVNMLWLDSTYPTNATGTPGAARGSCPTTSGDPKTVESQSGSSYVTFSDIRVGPFNSTFSGGSSTGGSSTTTASGTTTTKASSTSTSSTSTGTGVAAHWGQCGGQGWTGPTTCASGTTCTVVNPYYSQCL | 7.7 | 0.75
SEQ ID NO: 53, 54: BD29555 CBH I variant: V451W (protein) MSALNSFNMYKSALILGSLLATAGAQQIGTYTAETHPSLSWSTCKSGGSCTTNSGAITLDANWRWVHGVNTSTNCYTGNTWNTAICDTDASCAQDCALDGADYSGTYGITTSGNSLRLNFVTGSNVGSRTYLMADNTHYQIFDLLNQEFTFTVDVSHLPCGLNGALYFVTMDADGGVSKYPNNKAGAQYGVGYCDSQCPRDLKFIAGQANVEGWTPSSNNANTGLGNHGACCAELDIWEANSISEALTPHPCDTPGLSVCTTDACGGTYSSDRYAGTCDPDGCDFNPYRLGVTDFYGSGKTVDTTKPITVVTQFVTDDGTSTGTLSEIRRYYVQNGVVIPQPSSKISGVSGNVINSDFCDAEISTFGETASFSKHGGLAKMGAGMEAGMVLVMSLWDDYSVNMLWLDSTYPTNATGTPGAARGSCPTTSGDPKTVESQSGSSYVTFSDIRWGPFNSTFSGGSSTGGSSTTTASGTTTTKASSTSTSSTSTGTGVAAHWGQCGGQGWTGPTTCASGTTCTVVNPYYSQCL | 8.7 | 0.75
